# In PubChem BioAssay (NCI):
#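 In this assay, cells in 96-well plates receive the compound at five concentrations for 48 hours. Endpoints are linearly interpolated between the surrounding concentrations. GI50: concentration for 50% inhibition of growth. TGI denotes the concentration required for complete inhibition of growth.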
# Test system: NCI-H322M lung
# Assay: inhibition of tumour cell growth, NCI panel, 48 h
Structure (SMILES),GI50,TGI
O=C(NC1CCN(Cc2ccccc2)CC1)c1cc(C(=O)NC2CCN(Cc3ccccc3)CC2)cc(C(=O)NC2CCN(Cc3ccccc3)CC2)c1,8.47 µM,23.2 µM
O=C1CCCCC[C@]12SC[C@H]1CON=C12,–,> 100 µM
COC(=O)c1ccc(CCc2cc(O)c(Br)cc2O)cc1,–,> 64 µM
CCn1cc(C(=O)N/N=C/c2cccc(F)c2)c(=O)c2cc(F)c(N3CCNC(C)C3)c(F)c21 (centres undefined),1.7 µM,3.09 µM
O=c1[nH]c2ccc(CC(=S)N3CCN(c4ccccc4)CC3)cc2o1,–,> 100 µM
CC(=O)N1N=C(N)CC1=O,–,> 100 µM
COc1ccc(CCCC(=O)O)c(C)c1,–,> 100 µM
COc1cc(/C=C2\CN(S(=O)(=O)c3ccc(C)cc3)C/C(=C\c3cc(CN4CCCCC4)c(O)c(OC)c3)C2=O)cc(CN2CCCCC2)c1O,1.62 µM,3.1 µM
COc1cccc(-c2nc(-c3ccc(NC(=O)c4ccccc4)cc3)[nH]c2-c2ccnc(Br)c2)c1,3.97 µM,> 100 µM
CC1OC(O[C@H]2/C=C/C=C/C=C/C=C/C=C/C=C/C=C/[C@H](C)[C@@H](O)[C@@H](C)[C@H](C)OC(=O)C[C@H](O)C[C@H](O)CC[C@@H](O)[C@H](O)C[C@H](O)C[C@]3(O)C[C@H](O)[C@@H](C(=O)O)[C@H](C2)O3)C(O)C(N)C1O (some centres undefined),20.2 µM,50.3 µM
O=C(O[C@H]1CN[C@H](C#Cc2cc3ncnc(Nc4ccc(OCc5cccc(F)c5)c(Cl)c4)c3s2)C1)N1CCOCC1,2.88 µM,> 21.3 µM
N#CC(C(=O)CCC(=O)Nc1ccc(Cl)cc1)c1ccccc1Cl (centres undefined),–,> 100 µM
CCOC(=O)c1cc(=O)oc2c1N(C)c1ncccc1N2,–,> 100 µM
Clc1ccc2c(NCCNc3ccnc4cc(Cl)ccc34)ccnc2c1,–,31.2 µM
COc1ccc(C[C@H]2COC(=O)[C@@H]2Cc2ccc(O)cc2)cc1OC,–,> 100 µM
c1ccc2c(c1)nnn2CNc1ccc(N2CCOCC2)cc1,–,> 100 µM
O=S1c2ccccc2N=C(c2ccc(Cl)cc2)CC1c1cccs1 (centres undefined),–,> 100 µM
COC1CC2C=CC3C4OC2(/C(C)=C/C(C)C(C(C)O)OC1=O)C3C(O)C(C)C4OC(=O)c1ccc[nH]1 (centres undefined),–,> 100 µM
O=C1c2cccc3cc([N+](=O)[O-])cc(c23)C(=O)N1CCN1CCCC1,1.13 µM,4.98 µM
O=C(N/C(=C\c1ccc([N+](=O)[O-])cc1)c1nc2ccc(Cl)cc2[nH]1)c1ccccc1,–,87.5 µM
COc1ccc(C(C#N)NCCCCCCNC(C#N)c2ccc(OC)cc2)cc1 (centres undefined),–,> 100 µM
O=C1C=C(N2CC2)C(=O)C=C1N1CC1,0.397 µM,4.28 µM
CC(Oc1ccc(OCC2CCCCC2)cc1)C(=O)O (centres undefined),–,> 100 µM
CN[C@@H](C)[C@H](OP(=O)(O)OC1[C@@H](O)[C@H](O)C(O)[C@H](O)[C@@H]1O)c1ccccc1 (some centres undefined),–,> 100 µM
C/C(=N\NS(=O)(=O)c1ccc(C)cc1)c1c(O)cc(C)oc1=O,–,> 100 µM

Structure (SMILES),GI50,TGI
O=C1OC(C2OC(=O)c3cc(O)c(O)c(O)c3-c3c(O)c(O)c4oc(=O)c5c(c(O)c(O)c6oc(=O)c3c4c65)-c3c(cc(O)c(O)c3O)C(=O)OCC2O)C2OC(=O)c3c(c(O)c(O)c(O)c3[C@H]2O)-c2c1cc(O)c(O)c2O (some centres undefined),–,> 100 µM
O=C1/C(=C/c2ccccc2Br)COc2ccc(O)c(O)c21,2.01 µM,5.42 µM
C=CCCC(C)N(C(=O)OC(C)(C)C)S(=O)(=O)c1ccc(C)cc1 (centres undefined),–,> 100 µM
O=C(COc1ccc(Cl)cc1)N1N=C(c2ccc([N+](=O)[O-])o2)CC1(O)c1ccccc1 (centres undefined),–,22.4 µM
O=C1CC2C(=O)C1C(C(=O)O)C2C(=O)O (centres undefined),–,> 100 µM
NCC1OC(n2cnc3c(=O)[nH]c(N)nc32)C(O)C1O (centres undefined),–,> 100 µM
CC(=O)O[C@H]1CCC2[C@@H]3CCC4Nc5c(cnn5-c5ccccc5)C[C@]4(C)C3CC[C@@]21C (some centres undefined),–,61.1 µM
NC(=O)c1cc(Cl)ccc1NC(=O)c1ccccc1-c1ccccc1,4.63 µM,> 100 µM
ClC1(c2ccccc2)c2ccc(Br)cc2-c2cc(Br)ccc21,–,32.7 µM
Cc1ccc(/C=N/Nc2nncc3ccccc23)s1,–,> 100 µM
O=c1[nH]c(Nc2cccc(Br)c2)nc2nc[nH]c12,–,> 100 µM
CC[C@@]1(O)C(=O)OCc2c1cc1n(c2=O)Cc2c-1nc1ccccc1c2/C=N\NC(=O)C(N)Cc1cnc[nH]1 (some centres undefined),–,> 100 µM
COc1cc([C@@H]2c3cc4c(cc3[C@@H](NCc3ccc(C#N)cc3)C3COC(=O)[C@@H]32)OCO4)cc(OC)c1O (some centres undefined),–,41.4 µM
CSc1ccc(/C=C2\N=C(c3ccccc3)N(c3nc4c(Cl)cc(Cl)cc4s3)C2=O)cc1,–,99.3 µM
O=C(O)CN(c1ccccc1)S(=O)(=O)c1ccc(Cl)cc1,–,> 100 µM
C/C(=N\O)c1cccc(Nc2nc3ccccc3c3occc23)c1,–,26.8 µM
COc1cccc2c1C(=O)c1c(O)c3c(c(O)c1C2=O)C[C@@](O)(/C(C)=N/NC(=O)c1ccccc1)C[C@@H]3OC1CC(N)C(O)C(C)O1 (some centres undefined),–,7.65 µM
CC1=C(C(=O)NCC(C)O)CC(C(=O)NCC(C)O)=C(C)N1 (centres undefined),–,> 100 µM
Nn1c(SCC(=O)NCc2ccccc2)nc2ccccc2c1=O,–,> 100 µM
CCCC1C(=O)C(CC)Cc2c(OC)ccc(OC)c21 (centres undefined),–,> 100 µM
CC(=O)c1c(-c2ccccc2)c(-c2ccc(OCCN(C)C)cc2)n2ccccc12,–,30 µM
COc1cc2ccnc3c2c(c1OC)CC1CC(O)C(OC)CC31 (centres undefined),–,> 100 µM
C=Cc1cc2c(cc1O)CC[C@@H]1[C@@H]2CC[C@]2(C)[C@@H](O)CC[C@@H]12,–,15.1 µM
O=C(OCC1CCCN2CCCCC12)c1ccncc1 (centres undefined),–,> 100 µM
